The CheMixHub viscosity set
Where “and” joins values, the source holds several entries; their conditions need not be identical. Equal values may be shown once. The source gives many values for each of these; only a part stands here.

Test: xn = mol fraction of the nth substance listed

CO + O
Conditions | viscosity
293.15 K, 101 kPa, x1 = 0.059 | 1.253 mPa·s
293.15 K, 101 kPa, x1 = 0.19 | 1.68 mPa·s
293.15 K, 101 kPa, x1 = 0.27 | 1.77 mPa·s
293.15 K, 101 kPa, x1 = 0.36 | 1.798 mPa·s
293.15 K, 101 kPa, x1 = 0.46 | 1.681 mPa·s
293.15 K, 101 kPa, x1 = 0.57 | 1.513 mPa·s
293.15 K, 101 kPa, x1 = 0.69 | 1.192 mPa·s
293.15 K, 101 kPa, x1 = 0.83 | 0.874 mPa·s
293.15 K, 101.33 kPa, x1 = 0.0588 | 1.338 mPa·s
293.15 K, 101.33 kPa, x1 = 0.123 | 1.639 mPa·s
293.15 K, 101.33 kPa, x1 = 0.194 | 1.829 mPa·s
293.15 K, 101.33 kPa, x1 = 0.232 | 1.876 mPa·s
293.15 K, 101.33 kPa, x1 = 0.25 | 1.89 mPa·s
293.15 K, 101.33 kPa, x1 = 0.273 | 1.881 mPa·s
293.15 K, 101.33 kPa, x1 = 0.458 | 1.629 mPa·s
293.15 K, 101.33 kPa, x1 = 0.692 | 1.142 mPa·s
298.15 K, 100 kPa, x1 = 0.159 | 1.501 mPa·s
298.15 K, 100 kPa, x1 = 0.2474 | 1.577 mPa·s
298.15 K, 100 kPa, x1 = 0.25 | 1.581 mPa·s
298.15 K, 100 kPa, x1 = 0.3 | 1.575 mPa·s
298.15 K, 100 kPa, x1 = 0.306 | 1.636 mPa·s
298.15 K, 100 kPa, x1 = 0.3642 | 1.524 mPa·s
298.15 K, 100 kPa, x1 = 0.5 | 1.325 mPa·s
298.15 K, 100 kPa, x1 = 0.6519 | 1.061 mPa·s
298.15 K, 100 kPa, x1 = 0.75 | 0.9031 mPa·s
298.15 K, 100 kPa, x1 = 0.8031 | 0.827 mPa·s
298.15 K, 101 kPa, x1 = 0.0574 | 1.172 mPa·s
298.15 K, 101 kPa, x1 = 0.059 | 1.098 mPa·s
298.15 K, 101 kPa, x1 = 0.0813 | 1.255 mPa·s
298.15 K, 101 kPa, x1 = 0.1233 | 1.419 mPa·s
298.15 K, 101 kPa, x1 = 0.1282 | 1.247 mPa·s
298.15 K, 101 kPa, x1 = 0.19 | 1.444 mPa·s
298.15 K, 101 kPa, x1 = 0.1942 | 1.582 mPa·s
298.15 K, 101 kPa, x1 = 0.2247 | 1.624 mPa·s
298.15 K, 101 kPa, x1 = 0.2541 | 1.66 mPa·s
298.15 K, 101 kPa, x1 = 0.27 | 1.502 mPa·s
298.15 K, 101 kPa, x1 = 0.2726 | 1.671 mPa·s
298.15 K, 101 kPa, x1 = 0.285 | 1.624 mPa·s
298.15 K, 101 kPa, x1 = 0.2948 | 1.426 mPa·s
298.15 K, 101 kPa, x1 = 0.3578 | 1.425 mPa·s
298.15 K, 101 kPa, x1 = 0.3599 | 1.576 mPa·s
298.15 K, 101 kPa, x1 = 0.36 | 1.572 mPa·s
298.15 K, 101 kPa, x1 = 0.457 | 1.426 mPa·s
298.15 K, 101 kPa, x1 = 0.46 | 1.409 mPa·s
298.15 K, 101 kPa, x1 = 0.525 | 1.351 mPa·s
298.15 K, 101 kPa, x1 = 0.5671 | 1.234 mPa·s
298.15 K, 101 kPa, x1 = 0.57 | 1.185 mPa·s and 1.339 mPa·s
298.15 K, 101 kPa, x1 = 0.639 | 1.159 mPa·s
298.15 K, 101 kPa, x1 = 0.69 | 1.004 mPa·s
298.15 K, 101 kPa, x1 = 0.6926 | 1.024 mPa·s
298.15 K, 101 kPa, x1 = 0.756 | 0.889 mPa·s
298.15 K, 101 kPa, x1 = 0.816 | 0.881 mPa·s and 0.803 mPa·s
298.15 K, 101 kPa, x1 = 0.83 | 0.7619 mPa·s and 0.805 mPa·s
298.15 K, 101 kPa, x1 = 0.8345 | 0.7885 mPa·s
298.15 K, 101 kPa, x1 = 0.847 | 0.761 mPa·s
298.15 K, 101 kPa, x1 = 0.899 | 0.755 mPa·s
298.15 K, 101 kPa, x1 = 0.907 | 0.681 mPa·s
298.15 K, 101 kPa, x1 = 0.964 | 0.596 mPa·s
298.15 K, 101.33 kPa, x1 = 0.0625 | 1.162 mPa·s
298.15 K, 101.33 kPa, x1 = 0.1999 | 1.49 mPa·s
298.15 K, 101.33 kPa, x1 = 0.2499 | 1.585 mPa·s
298.15 K, 101.33 kPa, x1 = 0.3332 | 1.558 mPa·s
298.15 K, 101.33 kPa, x1 = 0.6666 | 1.06 mPa·s
303.15 K, 101 kPa, x1 = 0.024 | 0.8816 mPa·s
303.15 K, 101 kPa, x1 = 0.059 | 0.982 mPa·s
303.15 K, 101 kPa, x1 = 0.0597 | 0.991 mPa·s
303.15 K, 101 kPa, x1 = 0.0927 | 1.105 mPa·s
303.15 K, 101 kPa, x1 = 0.12 | 1.145 mPa·s
303.15 K, 101 kPa, x1 = 0.128 | 1.215 mPa·s
303.15 K, 101 kPa, x1 = 0.1662 | 1.281 mPa·s
303.15 K, 101 kPa, x1 = 0.19 | 1.257 mPa·s
303.15 K, 101 kPa, x1 = 0.1986 | 1.324 mPa·s
303.15 K, 101 kPa, x1 = 0.2086 | 1.349 mPa·s
303.15 K, 101 kPa, x1 = 0.2491 | 1.358 mPa·s
303.15 K, 101 kPa, x1 = 0.27 | 1.329 mPa·s
303.15 K, 101 kPa, x1 = 0.2841 | 1.358 mPa·s
303.15 K, 101 kPa, x1 = 0.3041 | 1.364 mPa·s
303.15 K, 101 kPa, x1 = 0.3084 | 1.354 mPa·s
303.15 K, 101 kPa, x1 = 0.36 | 1.353 mPa·s
303.15 K, 101 kPa, x1 = 0.3673 | 1.321 mPa·s
303.15 K, 101 kPa, x1 = 0.4203 | 1.232 mPa·s
303.15 K, 101 kPa, x1 = 0.46 | 1.269 mPa·s
303.15 K, 101 kPa, x1 = 0.4752 | 1.199 mPa·s
303.15 K, 101 kPa, x1 = 0.5235 | 1.141 mPa·s
303.15 K, 101 kPa, x1 = 0.5657 | 1.084 mPa·s
303.15 K, 101 kPa, x1 = 0.57 | 1.143 mPa·s and 1.184 mPa·s
303.15 K, 101 kPa, x1 = 0.6735 | 0.9252 mPa·s
303.15 K, 101 kPa, x1 = 0.69 | 0.9634 mPa·s and 0.964 mPa·s
303.15 K, 101 kPa, x1 = 0.7522 | 0.8309 mPa·s
303.15 K, 101 kPa, x1 = 0.8172 | 0.7361 mPa·s
303.15 K, 101 kPa, x1 = 0.83 | 0.7112 mPa·s and 0.726 mPa·s
303.15 K, 101 kPa, x1 = 0.92 | 0.6056 mPa·s
303.15 K, 101.33 kPa, x1 = 0.0464 | 0.9945 mPa·s
303.15 K, 101.33 kPa, x1 = 0.0588 | 1.056 mPa·s
303.15 K, 101.33 kPa, x1 = 0.1119 | 1.133 mPa·s
303.15 K, 101.33 kPa, x1 = 0.123 | 1.24 mPa·s
303.15 K, 101.33 kPa, x1 = 0.1593 | 1.285 mPa·s
303.15 K, 101.33 kPa, x1 = 0.194 | 1.378 mPa·s
303.15 K, 101.33 kPa, x1 = 0.2274 | 1.379 mPa·s
303.15 K, 101.33 kPa, x1 = 0.273 | 1.417 mPa·s
303.15 K, 101.33 kPa, x1 = 0.2752 | 1.304 mPa·s
303.15 K, 101.33 kPa, x1 = 0.3063 | 1.445 mPa·s
303.15 K, 101.33 kPa, x1 = 0.36 | 1.378 mPa·s
303.15 K, 101.33 kPa, x1 = 0.3984 | 1.356 mPa·s
303.15 K, 101.33 kPa, x1 = 0.458 | 1.273 mPa·s
303.15 K, 101.33 kPa, x1 = 0.4607 | 1.213 mPa·s
303.15 K, 101.33 kPa, x1 = 0.5075 | 1.216 mPa·s
303.15 K, 101.33 kPa, x1 = 0.6385 | 0.9883 mPa·s
303.15 K, 101.33 kPa, x1 = 0.692 | 0.933 mPa·s
303.15 K, 101.33 kPa, x1 = 0.6981 | 0.927 mPa·s
303.15 K, 101.33 kPa, x1 = 0.7989 | 0.7364 mPa·s
303.15 K, 101.33 kPa, x1 = 0.8322 | 0.746 mPa·s
303.16 K, 101.33 kPa, x1 = 0.0583 | 1.013 mPa·s
303.16 K, 101.33 kPa, x1 = 0.1229 | 1.209 mPa·s
303.16 K, 101.33 kPa, x1 = 0.2719 | 1.384 mPa·s
303.16 K, 101.33 kPa, x1 = 0.4571 | 1.238 mPa·s
303.16 K, 101.33 kPa, x1 = 0.5663 | 1.091 mPa·s
303.16 K, 101.33 kPa, x1 = 0.6913 | 0.913 mPa·s
303.16 K, 101.33 kPa, x1 = 0.8341 | 0.717 mPa·s
308.15 K, 100 kPa, x1 = 0.047 | 0.868 mPa·s
308.15 K, 100 kPa, x1 = 0.159 | 1.181 mPa·s
308.15 K, 100 kPa, x1 = 0.306 | 1.236 mPa·s
308.15 K, 101 kPa, x1 = 0.059 | 0.875 mPa·s
308.15 K, 101 kPa, x1 = 0.0597 | 0.887 mPa·s
308.15 K, 101 kPa, x1 = 0.12 | 1.009 mPa·s
308.15 K, 101 kPa, x1 = 0.128 | 1.08 mPa·s
308.15 K, 101 kPa, x1 = 0.19 | 1.111 mPa·s
308.15 K, 101 kPa, x1 = 0.27 | 1.157 mPa·s
308.15 K, 101 kPa, x1 = 0.3041 | 1.21 mPa·s
308.15 K, 101 kPa, x1 = 0.4203 | 1.099 mPa·s
308.15 K, 101 kPa, x1 = 0.46 | 1.154 mPa·s
308.15 K, 101 kPa, x1 = 0.5657 | 0.9867 mPa·s
308.15 K, 101 kPa, x1 = 0.57 | 1.058 mPa·s
